Among all 44,000 compounds or so, about 340 (0.77%) were called active. Not shown: some 5% with an inconclusive outcome. Calls come from the whole dose curve; as a rule, active = well fitted inhibition curve with a large enough effect; inconclusive = small, poorly fitted or top-dose-only effect; inactive = flat fitted curve, though single readings scatter. Some of the results follow.
Assay: Acumen qHTS Assay for Inhibitors of the mTORC1 Signaling Pathway in MEF (Tsc2-/-, p53-/-) Cells: Sytravon;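 note: plate controls were DMSO for no effect and rapamycin for full effect; nearly all actives have a fitted effect of over 50% in size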
Conditions: phospho-rpS6 immunofluorescence/PI, 24 h; series mostly up to 38.3 µM; activity change, negative = inhibition: at the top concentration
Method in brief: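 Read-out: phospho-S6 Alexa-488 intensity over PI intensity per well, scored as % active cells using thresholds from rapamycin (7.5 nM) and DMSO controls. Tsc2-/-, p53-/- MEFs exposed to compound for 24 h; PI cell count recorded as viability.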

Activity change, negative = inhibition, inactive:
Cc1ccc(-n2nc3c(=O)n(C(C)C(=O)NCc4ccco4)nc(C)c3c2C)cc1 (stereo unspecified) 0.0523%
Cc1ccc(Cl)cc1N1CCN(CCCNC(=O)c2ccc3nc(N4CCCCC4)sc3c2)CC1 -2.67%
CCn1ccc2c(OCC(=O)Nc3ccccc3C(F)(F)F)cccc2c1=O -5.98%
O=C(NC1(C(F)(F)F)NC(=O)N(CCc2ccccc2)C1=O)c1ccc(Cl)cc1 (stereo unspecified) -3.21%
COC(=O)CC1Oc2ccc(Cl)cc2-n2cc(-c3ccccc3)nc21 (stereo unspecified) -9.12%
Oc1c(C(c2ccccc2)N2CCC(O)CC2)sc2nc(-c3ccco3)nn12 (stereo unspecified) -0.661%
CCOc1ccc(CCNC(=O)c2cnc3sc(N4CCCC4)nn3c2=O)cc1 0%
CCCCOc1cccc(C(=O)N(Cc2ccc(C)o2)c2ccccn2)c1 -21.4%
COc1ccc(NS(=O)(=O)c2ccc3[nH]c4c(c3c2)CCCC4)cc1OC -17.1%
Cc1ccc(C)c(NC(=O)c2ccc(CN3CC(=O)N4CCCCC4C3=O)cc2)c1 (stereo unspecified) -0.265%
CCn1c(CN2CCCCC2)nc2cc(NC(=O)c3cc(OC)c(OC)c(OC)c3)ccc21 -12.8%
CC(=O)Nc1ccc(NC(=O)c2ccc3c(c2)N(Cc2cccc(Cl)c2)C(=O)c2ccccc2S3(=O)=O)cc1 -17.7%
CCOC(=O)C(C)Sc1ccc2nnc(CCNS(=O)(=O)c3ccccc3)n2n1 (stereo unspecified) 2.55%
CC1N=C2c3ccccc3N=C(SCC(=O)NCCc3ccccc3)N2C1=O (stereo unspecified) 0%
COc1ccc(Nc2c3c(nc4ccc(NC(=O)c5ccc(F)cc5)cc24)CCCC3)cc1OC 0.239%
CN(Cc1ccccc1)C(=O)c1nc(-c2ccc(Cl)cc2)n2c1CCCCC2 -15.7%
COc1cc2ccccc2cc1C(=O)Nc1cccc(-c2nc3cc(C)c(C)cc3o2)c1C 4.5%
COc1ccc2oc(=O)c(C(=O)NCCc3c(C)[nH]c4c(Cl)cccc34)cc2c1 -26.4%
O=C(Nc1cccc(Cl)c1Cl)c1ccc2c(c1)N(Cc1cccc(Cl)c1)C(=O)c1ccccc1S2(=O)=O -7.29%
Cc1nc2nc(NCc3cccc(Br)c3)[nH]n2c(=O)c1Cc1ccccc1 3.05%
CCc1ccccc1NC(=O)N1CCN(c2cc(-c3noc(C)n3)ccc2C)CC1 -3.81%
CCOC(=O)c1cccc(NC(=O)C(CC(C)C)N2Cc3ccccc3C2=O)c1 (stereo unspecified) -6.55%
O=S(=O)(Nc1ccc(Cl)cc1)c1ccc(NS(=O)(=O)c2ccc3c(c2)OCCO3)cc1 0.231%
Cc1ccc(CN(C(=O)COc2cccc([N+](=O)[O-])c2)c2ccccn2)o1 1.18%
Cn1nnnc1SCCNCc1ccc(F)cc1 -0.409%
COc1cc(-c2noc(-c3ccc(NCc4cccnc4)c([N+](=O)[O-])c3)n2)cc(OC)c1OC 0.183%

From PubChem BioAssay AID493208 (National Center for Advancing Translational Sciences (NCATS), 2011)
